Data: the supplement of paper PMC8728848
This is one part of the list.

Key:
Test in all cases: glycan array binding signal (z-score within array); higher = stronger binding
Details in all cases: glycan notation: IUPAC condensed, linker removed
[1] = target: Fuc(a1-2)[Gal(a1-3)]Gal(b1-4)GlcNAc(b1-2)Man(a1-3)[Fuc(a1-2)[Gal(a1-3)]Gal(b1-4)GlcNAc(b1-2)Man(a1-6)]Man(b1-4)GlcNAc(b1-4)GlcNAc
Summary of the method: (§1)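 Arrays were curated from the Consortium for Functional Glycomics database, 3228 in total, and kept only where the protein sequence was available. Binding is expressed as a within-array Z-score. This score was averaged across arrays of the same protein sequence at different concentrations or buffers and across linkers, and negative values can be read as non-binding.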

[2] = target: Fuc(a1-2)[Gal(a1-3)]Gal(b1-4)GlcNAc(b1-2)Man(a1-3)[Fuc(a1-2)[Gal(a1-3)]Gal(b1-4)GlcNAc(b1-2)Man(a1-6)]Man(b1-4)GlcNAc(b1-4)[Fuc(a1-6)]GlcNAc
Summary of the method: as §1

[3] = target: Fuc(a1-2)[Gal(a1-3)]Gal(b1-4)GlcNAc(b1-3)GalNAc
Summary of the method: as §1

[4] = target: Fuc(a1-2)[Gal(a1-3)]Gal(b1-4)GlcNAc(b1-3)[Fuc(a1-2)[Gal(a1-3)]Gal(b1-4)GlcNAc(b1-6)]GalNAc
Summary of the method: as §1

[5] = target: Fuc(a1-2)[Gal(a1-3)]Gal(b1-4)GlcNAc(b1-6)GalNAc
Summary of the method: as §1

[6] = target: Fuc(a1-2)[Gal(a1-3)]Gal(b1-4)[Fuc(a1-3)]Glc
Summary of the method: as §1

[7] = target: Fuc(a1-2)[Gal(a1-3)]Gal(b1-4)[Fuc(a1-3)]GlcNAc
Summary of the method: as §1

[8] = target: Fuc(a1-2)[Gal(a1-3)]Gal(b1-4)[Fuc(a1-3)]GlcNAc(b1-3)GalNAc
Summary of the method: as §1

[9] = target: Fuc(a1-2)[Gal(a1-4)]Gal(b1-4)GlcNAc
Summary of the method: as §1

[10] = target: Fuc(a1-2)[GalNAc(a1-3)]Gal
Summary of the method: as §1

[11] = target: Fuc(a1-2)[GalNAc(a1-3)]Gal(b1-3)GalNAc(a1-3)[Fuc(a1-2)]Gal(b1-4)GlcNAc
Summary of the method: as §1

[12] = target: Fuc(a1-2)[GalNAc(a1-3)]Gal(b1-3)GalNAc(b1-3)Gal(a1-4)Gal(b1-4)Glc
Summary of the method: as §1

[13] = target: Fuc(a1-2)[GalNAc(a1-3)]Gal(b1-3)GlcNAc
Summary of the method: as §1

[14] = target: Fuc(a1-2)[GalNAc(a1-3)]Gal(b1-3)GlcNAc(b1-2)Man(a1-3)[Fuc(a1-2)[GalNAc(a1-3)]Gal(b1-3)GlcNAc(b1-2)Man(a1-6)]Man(b1-4)GlcNAc(b1-4)GlcNAc
Summary of the method: as §1

[15] = target: Fuc(a1-2)[GalNAc(a1-3)]Gal(b1-3)GlcNAc(b1-2)Man(a1-3)[Fuc(a1-2)[GalNAc(a1-3)]Gal(b1-3)GlcNAc(b1-2)Man(a1-6)]Man(b1-4)GlcNAc(b1-4)[Fuc(a1-6)]GlcNAc
Summary of the method: as §1

[16] = target: Fuc(a1-2)[GalNAc(a1-3)]Gal(b1-3)GlcNAc(b1-3)GalNAc
Summary of the method: as §1

[17] = target: Fuc(a1-2)[GalNAc(a1-3)]Gal(b1-3)GlcNAc(b1-6)GalNAc
Summary of the method: as §1

[18] = target: Fuc(a1-2)[GalNAc(a1-3)]Gal(b1-4)Glc
Summary of the method: as §1

[19] = target: Fuc(a1-2)[GalNAc(a1-3)]Gal(b1-4)GlcNAc
Summary of the method: as §1

[20] = target: Fuc(a1-2)[GalNAc(a1-3)]Gal(b1-4)GlcNAc(b1-2)Man
Summary of the method: as §1

[21] = target: Fuc(a1-2)[GalNAc(a1-3)]Gal(b1-4)GlcNAc(b1-2)Man(a1-3)[Fuc(a1-2)[GalNAc(a1-3)]Gal(b1-4)GlcNAc(b1-2)Man(a1-6)]Man(b1-4)GlcNAc(b1-4)GlcNAc
Summary of the method: as §1

[22] = target: Fuc(a1-2)[GalNAc(a1-3)]Gal(b1-4)GlcNAc(b1-2)Man(a1-3)[Fuc(a1-2)[GalNAc(a1-3)]Gal(b1-4)GlcNAc(b1-2)Man(a1-6)]Man(b1-4)GlcNAc(b1-4)[Fuc(a1-6)]GlcNAc
Summary of the method: as §1

[23] = target: Fuc(a1-2)[GalNAc(a1-3)]Gal(b1-4)GlcNAc(b1-3)Gal(b1-4)GlcNAc
Summary of the method: as §1

[24] = target: Fuc(a1-2)[GalNAc(a1-3)]Gal(b1-4)GlcNAc(b1-3)Gal(b1-4)GlcNAc(b1-3)Gal(b1-4)GlcNAc
Summary of the method: as §1

[25] = target: Fuc(a1-2)[GalNAc(a1-3)]Gal(b1-4)GlcNAc(b1-3)GalNAc
Summary of the method: as §1

[26] = target: Fuc(a1-2)[GalNAc(a1-3)]Gal(b1-4)GlcNAc(b1-3)[Fuc(a1-2)[GalNAc(a1-3)]Gal(b1-4)GlcNAc(b1-6)]GalNAc
Summary of the method: as §1

[27] = target: Fuc(a1-2)[GalNAc(a1-3)]Gal(b1-4)GlcNAc(b1-6)GalNAc
Summary of the method: as §1

[28] = target: Fuc(a1-2)[GalNAc(a1-3)]Gal(b1-4)[Fuc(a1-3)]GlcNAc
Summary of the method: as §1

[29] = target: Fuc(a1-2)[GalNAc(a1-3)]Gal(b1-4)[Fuc(a1-3)]GlcNAc(b1-3)GalNAc
Summary of the method: as §1

[30] = target: Fuc(a1-2)[GalNAc(a1-4)]Gal(b1-4)GlcNAc
Summary of the method: as §1

[31] = target: Fuc(a1-2)[GalNAc(b1-3)]Gal
Summary of the method: as §1

[32] = target: Fuc(a1-3)GlcNAc
Summary of the method: as §1

[33] = target: Fuc(a1-3)[Gal(b1-4)]Glc6S
Summary of the method: as §1

[34] = target: Fuc(a1-3)[Gal(b1-4)]GlcNAc
Summary of the method: as §1

[35] = target: Fuc(a1-3)[Gal(b1-4)]GlcNAc(b1-2)Man
Summary of the method: as §1

[36] = target: Fuc(a1-3)[Gal(b1-4)]GlcNAc(b1-2)Man(a1-3)[Fuc(a1-3)[Gal(b1-4)]GlcNAc(b1-2)Man(a1-6)]Man(b1-4)GlcNAc(b1-4)GlcNAc
Summary of the method: as §1

[37] = target: Fuc(a1-3)[Gal(b1-4)]GlcNAc(b1-2)Man(a1-3)[Fuc(a1-3)[Gal(b1-4)]GlcNAc(b1-2)Man(a1-6)]Man(b1-4)GlcNAc(b1-4)[Fuc(a1-6)]GlcNAc
Summary of the method: as §1

[38] = target: Fuc(a1-3)[Gal(b1-4)]GlcNAc(b1-3)Gal(b1-3)[Fuc(a1-4)]GlcNAc
Summary of the method: as §1

[39] = target: Fuc(a1-3)[Gal(b1-4)]GlcNAc(b1-3)Gal(b1-4)[Fuc(a1-3)]GlcNAc
Summary of the method: as §1

[40] = target: Fuc(a1-3)[Gal(b1-4)]GlcNAc(b1-3)Gal(b1-4)[Fuc(a1-3)]GlcNAc(b1-3)Gal(b1-4)[Fuc(a1-3)]GlcNAc
Summary of the method: as §1

[41] = target: Fuc(a1-3)[Gal(b1-4)]GlcNAc(b1-3)GalNAc
Summary of the method: as §1

[42] = target: Fuc(a1-3)[Gal(b1-4)]GlcNAc(b1-6)GalNAc
Summary of the method: as §1

[43] = target: Fuc(a1-3)[Gal(b1-4)]GlcNAc(b1-6)[Gal(b1-3)GlcNAc(b1-3)]Gal(b1-4)Glc
Summary of the method: as §1

[44] = target: Fuc(a1-3)[Gal(b1-4)]GlcNAc6S
Summary of the method: as §1

[45] = target: Fuc(a1-3)[Gal3S(b1-4)]Glc
Summary of the method: as §1

[46] = target: Fuc(a1-3)[Gal3S(b1-4)]GlcNAc
Summary of the method: as §1

[47] = target: Fuc(a1-3)[Gal3S(b1-4)]GlcNAc6S
Summary of the method: as §1

[48] = target: Fuc(a1-3)[GalNAc(b1-4)]GlcNAc
Summary of the method: as §1

[49] = target: Fuc(a1-3)[GalNAc(b1-4)]GlcNAc6S
Summary of the method: as §1

[50] = target: Fuc(a1-4)GlcNAc
Summary of the method: as §1

[51] = target: Fuc(b1-3)GlcNAc
Summary of the method: as §1

[52] = target: Gal(a1-2)Gal
Summary of the method: as §1

[53] = target: Gal(a1-3)Gal
Summary of the method: as §1

[54] = target: Gal(a1-3)Gal(b1-3)GlcNAc
Summary of the method: as §1

[55] = target: Gal(a1-3)Gal(b1-3)GlcNAc(b1-2)Man
Summary of the method: as §1

[56] = target: Gal(a1-3)Gal(b1-3)GlcNAc(b1-2)Man(a1-3)[Gal(a1-3)Gal(b1-3)GlcNAc(b1-2)Man(a1-6)]Man(b1-4)GlcNAc(b1-4)GlcNAc
Summary of the method: as §1

[57] = target: Gal(a1-3)Gal(b1-3)GlcNAc(b1-3)GalNAc
Summary of the method: as §1

[58] = target: Gal(a1-3)Gal(b1-3)GlcNAc(b1-6)GalNAc
Summary of the method: as §1

[59] = target: Gal(a1-3)Gal(b1-3)[Fuc(a1-4)]GlcNAc(b1-2)Man(a1-3)[Gal(a1-3)Gal(b1-3)[Fuc(a1-4)]GlcNAc(b1-2)Man(a1-6)]Man(b1-4)GlcNAc(b1-4)GlcNAc
Summary of the method: as §1

[60] = target: Gal(a1-3)Gal(b1-4)Glc
Summary of the method: as §1

B1: Gal 3C (Homo sapiens), P17931 (protein)
chain: YGAPAGPLIVPYNLPLPGGVVPRMLITILGTVKPNANRIALDFQRGNDVAFHFNPRFNENNRRVIVCNTKLDNNWGREERQSVFPFESGKPFKIQVLVEPDHFKVAVNDAHLLQYNHRVKKLNEISKLGISGDIDLTSASYTMI
With B1 the “glycan array binding signal (z-score)” value [1] was 2.72, the “glycan array binding signal (z-score)” value [2] was 0.582 and the “glycan array binding signal (z-score)” value [3] was 0.723. The “glycan array binding signal (z-score)” value [4] was 1.16, the “glycan array binding signal (z-score)” value [5] was -0.251 and the “glycan array binding signal (z-score)” value [6] was -0.321. The “glycan array binding signal (z-score)” value [7] was -0.196, the “glycan array binding signal (z-score)” value [8] was -0.257 and the “glycan array binding signal (z-score)” value [9] was -0.216. The “glycan array binding signal (z-score)” value [10] was -0.28, the “glycan array binding signal (z-score)” value [11] was -0.241 and the “glycan array binding signal (z-score)” value [12] was -0.334. For the same binder, the “glycan array binding signal (z-score)” value [13] was -0.132, the “glycan array binding signal (z-score)” value [14] was -0.236 and the “glycan array binding signal (z-score)” value [15] was -0.271. For the same binder, the “glycan array binding signal (z-score)” value [16] was -0.191, the “glycan array binding signal (z-score)” value [17] was -0.229 and the “glycan array binding signal (z-score)” value [18] was -0.117. The “glycan array binding signal (z-score)” value [19] was 0.703, the “glycan array binding signal (z-score)” value [20] was 0.944 and the “glycan array binding signal (z-score)” value [21] was 0.961. For the same binder, the “glycan array binding signal (z-score)” value [22] was -0.024, the “glycan array binding signal (z-score)” value [23] was 1.2 and the “glycan array binding signal (z-score)” value [24] was 1.54. The “glycan array binding signal (z-score)” value [25] was -0.148, the “glycan array binding signal (z-score)” value [26] was 0.25 and the “glycan array binding signal (z-score)” value [27] was -0.21. For the same binder, the “glycan array binding signal (z-score)” value [28] was -0.078, the “glycan array binding signal (z-score)” value [29] was 3.76 and the “glycan array binding signal (z-score)” value [30] was -0.361. For the same binder, the “glycan array binding signal (z-score)” value [31] was -0.188, the “glycan array binding signal (z-score)” value [32] was -0.322 and the “glycan array binding signal (z-score)” value [33] was -0.238. The “glycan array binding signal (z-score)” value [34] was -0.343, the “glycan array binding signal (z-score)” value [35] was -0.317 and the “glycan array binding signal (z-score)” value [36] was -0.35. For the same binder, the “glycan array binding signal (z-score)” value [37] was -0.205, the “glycan array binding signal (z-score)” value [38] was -0.276 and the “glycan array binding signal (z-score)” value [39] was -0.304. For the same binder, the “glycan array binding signal (z-score)” value [40] was -0.136, the “glycan array binding signal (z-score)” value [41] was -0.191 and the “glycan array binding signal (z-score)” value [42] was -0.149. For the same binder, the “glycan array binding signal (z-score)” value [43] was -0.379, the “glycan array binding signal (z-score)” value [44] was -0.105 and the “glycan array binding signal (z-score)” value [45] was -0.29. For the same binder, the “glycan array binding signal (z-score)” value [46] was -0.139, the “glycan array binding signal (z-score)” value [47] was -0.341 and the “glycan array binding signal (z-score)” value [48] was -0.26. For the same binder, the “glycan array binding signal (z-score)” value [49] was -0.269, the “glycan array binding signal (z-score)” value [50] was -0.197 and the “glycan array binding signal (z-score)” value [51] was -0.343. For the same binder, the “glycan array binding signal (z-score)” value [52] was -0.361, the “glycan array binding signal (z-score)” value [53] was -0.371 and the “glycan array binding signal (z-score)” value [54] was -0.333. For the same binder, the “glycan array binding signal (z-score)” value [55] was -0.35, the “glycan array binding signal (z-score)” value [56] was -0.243 and the “glycan array binding signal (z-score)” value [57] was -0.29. The “glycan array binding signal (z-score)” value [58] was -0.299, the “glycan array binding signal (z-score)” value [59] was -0.221 and the “glycan array binding signal (z-score)” value [60] was -0.304.
